Reference: the supplement of paper PMC10670038
Several values for one entry are separate records, joined by “and”; a condition that tells them apart may be missing. Identical values can stand only once. Counter-ions that a name gives are not always drawn. ± gives the standard deviation of the averaged measurements. In all, about 2,000 compounds were measured (“relative cell viability vs DMSO, compound + 0.2 uM CuET”: median about 1, lowest 2% from about 0.25 on). The list shows a part of the results.

tested on: TE10; assay: relative cell viability vs DMSO, compound + 0.2 uM CuET (fraction); TE10 is an esophageal squamous carcinoma line; higher = less cytotoxic; settings: 2 µM; co-treatment: CuET (bis(diethyldithiocarbamate)copper) 0.2 uM; 48 h
Experimental: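 TE10 ESCC cells (1,000/well, 384-well plates) were treated with Selleck bioactive library compounds at 2 uM combined with 0.2 uM CuET (copper diethyldithiocarbamate) for 48 h. Viability was read by CellTiter-Glo and expressed relative to DMSO wells. Two technical replicates (A, B).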

`CCOC(=O)C1=C(C)NC(C)=C(C(=O)OC)C1c1cccc(Cl)c1Cl` (configuration not stated) [Felodipine] and `Cc1noc(-c2ccc(CSCCC(=O)O)cc2)c1NC(=O)OC(C)c1ccccc1Cl` (configuration not stated) are within error of each other in relative cell viability: 1.05 ± 0.044 for the first, 1.08 ± 0.052 for the second.

Going from `CN1CCN(Cc2ccc(-c3cnc4[nH]cc(-c5ccc6[nH]ccc6c5)c4c3)cc2)CC1` to `CN1CCCN(C(=O)c2cccc(-c3ccc(/C=C4/C(=O)Nc5ccc(Cl)cc54)o3)c2)CC1`, the relative cell viability falls from 1.08 ± 0.06 to 0.6144 ± 0.005.

Going from `CCCCCCCCOc1ccccc1C(=O)Nc1ccc(C(=O)OCC[N+](C)(CC)CC)cc1` [Otilonium Bromide] to `CCc1ccc(OCc2ccccc2C(=O)Nc2ccc3nc(C)cc(N)c3c2)cc1`, the relative cell viability falls from 1.18 ± 0.35 to 0.256 ± 0.014.

`CN1CCN2c3ccccc3Cc3ccccc3C2C1` (configuration not stated) [Mianserin HCl] and `O=C(Nc1ccccc1)N1CCN(c2nc(-c3ccccc3)ns2)CC1` are within error of each other in relative cell viability: 0.988 ± 0.26 for the first, 1.17 ± 0.11 for the second.

Compared with `CCCCc1ncc(/C=C(\Cc2cccs2)C(=O)O)n1Cc1ccc(C(=O)O)cc1` [Eprosartan Mesylate], `O=C(O)c1ccc(C=C2SC(=S)N(c3cccc(C(F)(F)F)c3)C2=O)cc1` is lower in relative cell viability: 1.27 ± 0.057 for the first, 0.926 ± 0.022 for the second.

`CC(CNC(=O)c1cccnc1)NC(=O)c1cccnc1` (configuration not stated) [Nicaraven] and `O=C(O)c1cccnc1` [Nicotinic Acid] are within error of each other in relative cell viability: 1.17 ± 0.093 for the first, 1.09 ± 0.1 for the second.

`Clc1cccc(CN=C2Nc3ccccc3NC23CCNCC3)c1` [Liproxstatin-1] and `Cc1cccc(N(C)C(=S)Oc2ccc3ccccc3c2)c1` [Tolnaftate] are within error of each other in relative cell viability: 0.905 ± 0.17 for the first, 0.927 ± 0.065 for the second.

`Cn1nc(C(C)(C)C)cc1C(=O)N[C@@H](Cc1cccc(Cl)c1)C(=O)NCC#N` [Cathepsin Inhibitor 1] and `CC(ONC(=O)c1cc(C(F)(F)F)cc(C(F)(F)F)c1)C(=O)Nc1ccc(Cl)cc1` (configuration not stated) are within error of each other in relative cell viability: 1.22 ± 0.32 for the first, 1.17 ± 0.041 for the second.

Going from `CN(C)CCc1c[nH]c2ccc(CS(=O)(=O)N3CCCC3)cc12` [Almotriptan Malate] to `CCCCOc1ccc(C(=O)CCN2CCCCC2)cc1` [Dyclonine HCl], the relative cell viability falls from 0.938 ± 0.0096 to 0.521 ± 0.065.

Compared with `O=c1[nH]c(=O)n([C@H]2C[C@H](O)[C@@H](CO)O2)cc1I` [Idoxuridine], `C[C@H]1C[C@H]2[C@@H]3CCC4=CC(=O)C=C[C@]4(C)[C@H]3C(=O)C[C@]2(C)[C@@]1(O)C(=O)CO` [Meprednisone] is lower in relative cell viability: 1.17 ± 0.086 for the first, 1.02 ± 0.055 for the second.

`CN1CCN(c2ccc3nc(-c4c(N)c5c(F)cccc5[nH]c4=O)[nH]c3c2)CC1` [Dovitinib (TKI-258, CHIR-258)] and `CN1CCN(C(=O)c2cc3cc(Cl)ccc3[nH]2)CC1` are within error of each other in relative cell viability: 0.9943 ± 0.0019 for the first, 1.08 ± 0.11 for the second.

`CN1CCN(c2ccc3nc(-c4c(N)c5c(F)cccc5[nH]c4=O)[nH]c3c2)CC1` [Dovitinib (TKI258) Lactate] and `CCS(=O)(=O)N1CCN(c2ccc(Nc3ncc(C(N)=O)c(NC4CC4)n3)cc2)CC1` are within error of each other in relative cell viability: 1.18 ± 0.11 for the first, 1.12 ± 0.16 for the second.

First: CN1CCN(c2ccc3nc(-c4c(N)c5c(F)cccc5[nH]c4=O)[nH]c3c2)CC1 [Dovitinib (TKI-258) Dilactic Acid]
Second: Cc1cccc(-c2nn3c(c2-c2ccnc4ccc(C(N)=O)cc24)CCC3)n1
The relative cell viability of the first is lower: 0.952 ± 0.059 for the first, 1.16 ± 0.074 for the second.

First: C=CCNC1=C2C[C@@H](C)C[C@H](OC)[C@H](O)[C@@H](C)/C=C(\C)[C@H](OC(N)=O)[C@@H](OC)/C=C\C=C(/C)C(=O)NC(=CC1=O)C2=O [17-AAG (Tanespimycin)]
Second: CO[C@H]1C[C@@H]2CC[C@@H](C)[C@@](O)(O2)C(=O)C(=O)N2CCCC[C@H]2C(=O)O[C@H]([C@H](C)C[C@@H]2CC[C@@H](OC(=O)C(C)(CO)CO)[C@H](OC)C2)CC(=O)[C@H](C)/C=C(\C)[C@@H](O)[C@@H](OC)C(=O)[C@H](C)C[C@H](C)/C=C/C=C/C=C/1C
The relative cell viability of the first is lower: 0.78 ± 0.089 for the first, 0.974 ± 0.031 for the second.

First: CCCCc1oc2ccccc2c1C(=O)c1cc(I)c(OCCN(CC)CC)c(I)c1 [Amiodarone HCl]
Second: Cc1ccc(C(=O)N(CCCN)[C@@H](c2oc3cc(Cl)ccc3c(=O)c2Cc2ccccc2)C(C)C)cc1
The relative cell viability of the first is higher: 0.743 ± 0.0089 for the first, 0.658 ± 0.0021 for the second.

Going from `COc1cc2c(NC3CCN(CC4CCCCC4)CC3)nc(N3CCCN(C(C)C)CC3)nc2cc1OCCCN1CCCCC1` to `O=C(Nc1ncc(SCCN2CCCC2)s1)[C@]1(c2ccc(S(=O)(=O)C3CC3)cc2)C[C@H]1C1CCCCC1`, the relative cell viability falls from 1.13 ± 0.075 to 0.656 ± 0.067.

`COc1ccc(-c2ccc3cc(C(=O)O)ccc3c2)cc1C12CC3CC(CC(C3)C1)C2` [Adapalene] and `COC(=O)N[C@H](C(=O)N1CC2(CC2)C[C@H]1c1nc(-c2ccc3c(c2)C(F)(F)c2cc(-c4ccc5[nH]c([C@@H]6[C@H]7CC[C@H](C7)N6C(=O)[C@@H](NC(=O)OC)C(C)C)nc5c4)ccc2-3)c[nH]1)C(C)C` [Ledipasvir (GS5885)] are within error of each other in relative cell viability: 1.12 ± 0.097 for the first, 1.05 ± 0.048 for the second.

Going from `CC1(C)C=C(CN2C/C(=C\c3ccc(F)cc3)C(=O)/C(=C/c3ccc(F)cc3)C2)C(C)(C)N1O` to `Cn1c(N2CCCCS2(=O)=O)nc(C(=O)NCc2ccc(F)cc2)c(O)c1=O`, the relative cell viability rises from 0.216 ± 0.0066 to 1.24 ± 0.071.

`NNC(=O)c1ccncc1` [Isoniazid] and `N#CC1(c2ccc(NC(=O)c3cccnc3NCc3ccncc3)cc2)CCCC1` [Apatinib] are within error of each other in relative cell viability: 1.1 ± 0.14 for the first, 1.02 ± 0.061 for the second.

`O=C(O)CCCN1CCC(O[C@@H](c2ccc(Cl)cc2)c2ccccn2)CC1` [Bepotastine Besilate] and `O=C(Nc1cccnc1)N1CCC(Cc2cccc(Oc3ccc(C(F)(F)F)cn3)c2)CC1` are within error of each other in relative cell viability: 1.11 ± 0.17 for the first, 1.24 ± 0.067 for the second.

`CCC(=O)OCC(=O)[C@@]1(OC(=O)CC)[C@@H](C)C[C@H]2[C@@H]3CCC4=CC(=O)C=C[C@]4(C)[C@@]3(F)[C@@H](O)C[C@@]21C` [Betamethasone Dipropionate] and `CC(=O)OCC(=O)[C@@]1(O)CC[C@H]2[C@@H]3CCC4=CC(=O)C=C[C@]4(C)[C@H]3[C@@H](O)C[C@@]21C` [Prednisolone Acetate] are within error of each other in relative cell viability: 1.05 ± 0.052 for the first, 1.14 ± 0.074 for the second.

First: Cc1ccc(S(=O)(=O)OCC(=O)Nc2ccc(C(=O)O)c(O)c2)cc1
Second: Cc1cc(C)nc(NS(=O)(=O)c2ccc(NC(=S)NC(=O)COc3ccc(Br)cc3Cl)cc2)n1
The relative cell viability of the first is higher: 1.18 ± 0.055 for the first, 1.052 ± 0.0024 for the second.

`Cc1ccc(C(=O)Nc2cccc(C(F)(F)F)c2)cc1Nc1nc(-c2cccnc2)nc2c1cnn2C` and `N#Cc1c(Oc2ccc(F)c(NC(=O)Cc3cccc(C(F)(F)F)c3)c2)ccc2nc(NC(=O)C3CC3)sc12` are within error of each other in relative cell viability: 0.904 ± 0.024 for the first, 0.764 ± 0.15 for the second.

`COc1ccc(-c2cc(=O)c3c(OC)c(OC)c(OC)c(OC)c3o2)cc1OC` [Nobiletin] and `COc1ccc(-c2cc(=O)c3c(OC)c(OC)c(OC)c(OC)c3o2)cc1` [Tangeretin] are within error of each other in relative cell viability: 1.05 ± 0.051 for the first, 1.091 ± 0.0071 for the second.

`O=c1cc[nH]c(=O)[nH]1` [Uracil] and `Cn1nnc2c(C(N)=O)ncn2c1=O` [Temozolomide] are within error of each other in relative cell viability: 1.2 ± 0.14 for the first, 1.1 ± 0.12 for the second.

`CCC[C@@H]1C[C@@H](C(=O)N[C@@H]([C@H]2O[C@H](SC)[C@H](O)[C@@H](O)[C@H]2O)[C@@H](C)O)N(C)C1` [Lincomycin HCl] and `COc1ccc(CCC(=O)c2c(O)cc(O[C@@H]3O[C@H](CO)[C@@H](O)[C@H](O)[C@H]3O[C@@H]3O[C@@H](C)[C@H](O)[C@@H](O)[C@H]3O)cc2O)cc1O` [Neohesperidin dihydrochalcone (Nhdc)] are within error of each other in relative cell viability: 1.18 ± 0.025 for the first, 1.19 ± 0.047 for the second.

`CC12CC3CC(C)(C1)CC(N)(C3)C2` [Memantine HCl] and `CC(C)(C)NC(=O)[C@H]1CC[C@H]2[C@@H]3CC[C@H]4NC(=O)C=C[C@]4(C)[C@H]3CC[C@]12C` [Finasteride] are within error of each other in relative cell viability: 1.23 ± 0.16 for the first, 1.06 ± 0.12 for the second.

`CN1C(C(=O)Nc2ccccn2)=C(O)c2sc(Cl)cc2S1(=O)=O` [Lornoxicam] and `O=C(c1ccccc1)c1ccc2nc(NC(=O)c3csc(C4CCN(c5ncnc6ccsc56)CC4)n3)[nH]c2c1` are within error of each other in relative cell viability: 0.92 ± 0.05 for the first, 0.875 ± 0.087 for the second.

`Cc1ccc(CNc2ncnc3ccc(-c4ccc(CO)o4)cc23)o1` and `COc1ccc(CNc2nc(N3CCC[C@H]3CO)ncc2C(=O)NCc2ncccn2)cc1Cl` [Avanafil] are within error of each other in relative cell viability: 0.984 ± 0.068 for the first, 0.995 ± 0.023 for the second.

First: CC(C)c1nc(CN(C)C(=O)N[C@@H](CCN2CCOCC2)C(=O)N[C@H](CC[C@H](Cc2ccccc2)NC(=O)OCc2cncs2)Cc2ccccc2)cs1 [Cobicistat (GS-9350)]
Second: OC[C@@H](O)CN1CCN(c2ccccc2)CC1 [Levodropropizine]
The relative cell viability of the first is lower: 0.957 ± 0.025 for the first, 1.14 ± 0.029 for the second.

`C[N+](C)(C)C[C@H](O)CC(=O)[O-]` [L-carnitine] and `C[N+](C)(C)CC(O)CC(=O)[O-]` (racemic) [DL-Carnitine HCl] are within error of each other in relative cell viability: 0.9637 ± 0.0086 for the first, 0.987 ± 0.082 for the second.

`Cn1cnc(=N)c2[nH]cnc21` [3-Methyladenine] and `Cc1ccc(C(=O)Cn2c3c(sc2=N)CCCC3)cc1` [Pifithrin-α (PFTα)] are within error of each other in relative cell viability: 0.95 ± 0.064 for the first, 0.853 ± 0.045 for the second.

`Nc1nc(N)c2nc(-c3ccccc3)c(N)nc2n1` [Triamterene] and `COc1ccc(CCC(=O)Nc2nc3ccc(Cl)cc3s2)cc1OC` are the same in relative cell viability: 1.04 ± 0.17 for the first, 1.04 ± 0.13 for the second.

Going from `C=C1CC[C@H](O)C/C1=C/C=C1\CCC[C@]2(C)[C@@H]([C@H](C)/C=C/[C@H](C)C(C)C)CC[C@@H]12` [Vitamin D2] to `C=C1C(=O)O[C@H]2[C@H]1CC/C(C)=C/CC[C@@]1(C)O[C@@H]21` [(-)-Parthenolide], the relative cell viability falls from 0.898 ± 0.099 to 0.447 ± 0.029.

Compared with `C=CC[N+]1([C@H]2C[C@H]3[C@@H]4CC[C@H]5C[C@H](O)[C@@H](N6CCOCC6)C[C@]5(C)[C@H]4CC[C@]3(C)[C@H]2OC(C)=O)CCCC1` [Rocuronium Bromide], `O=[N+]([O-])c1cn2c(n1)OC[C@@H](OCc1ccc(OC(F)(F)F)cc1)C2` is lower in relative cell viability: 1.33 ± 0.06 for the first, 1.15 ± 0.12 for the second.

`CC[C@H](c1ccc(O)cc1)[C@@H](CC)c1ccc(O)cc1` [Hexestrol] gave a relative cell viability of 1.11 ± 0.14.

`CN(c1ncccc1CNc1nc(Nc2ccc3c(c2)CC(=O)N3)ncc1C(F)(F)F)S(C)(=O)=O` was tested, and the relative cell viability was 0.746 and 0.834 and 0.864.
